PubChem BioAssay AID686978 (National Center for Advancing Translational Sciences (NCATS), 2013)
The campaign covered roughly 420,000 compounds. About 64,000 (15%) were called active. This list was built around the results that the source calls inconclusive (neither active nor inactive); the mix of calls is not that of the screen. Calls come from the whole dose curve; as a rule, active = well fitted inhibition curve with a large enough effect; inconclusive = small, poorly fitted or top-dose-only effect; inactive = flat fitted curve, though single readings scatter. Potencies of inconclusive entries are left out as doubtful fits.

assay: qHTS for Inhibitors of human tyrosyl-DNA phosphodiesterase 1 (TDP1): qHTS in cells in absence of CPT; conditions: DT40 Tdp1-/- hTDP1 cells, no CPT, ATP luminescence, 48 h; activity change, negative = growth inhibition: at 46.2 µM (top of the series); note: nearly all actives have a fitted effect of over 55% in size
In short: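 Seeded 400 DT40-hTDP1 cells/well (vehicle DMSO, no 20 nM CPT); pinned compounds; ≥48 hr at 37 °C; CellTiter-Glo luminescence as viability measure.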
% is set by controls: 0 for no effect and ±100 for the full control effect; potency is the fitted concentration of half-maximal effect; tags give direction and shape of the fitted curve.

Row | SMILES | Potency | activity change, negative = growth inhibition
1 | CC(=O)c1ccc(NC(=O)C(C)n2nc(-c3ccccc3)ccc2=O)cc1 (configuration not stated) | inactive | –
2 | O=C(CN1C(=O)N/C(=C\c2ccccc2OCc2ccc(C(=O)O)cc2)C1=O)Nc1ccc(F)cc1 | inactive | –
3 | Cc1cccc(CNc2ncnc3ccc(-c4cccnc4)cc23)c1 | active: 18.4 µM | –
4 | Cc1ccc(CN(C(=O)c2sc3ccccc3c2Cl)C2CCS(=O)(=O)C2)cc1 (configuration not stated) | inconclusive [inhibitor, single point] | –
5 | CCOc1ncccc1C(=O)NCCc1ccc(Cl)cc1 | inconclusive [inhibitor, single point] | –
6 | CCC(C)N(C(=O)COC(=O)CNC(=O)c1sc2ccccc2c1Cl)C1CCS(=O)(=O)C1 (configuration not stated) | inactive | –
7 | COc1ccc(NS(=O)(=O)c2ccc(C)c(C(=O)NCC(c3ccco3)N(C)C)c2)cc1 (configuration not stated) | inactive | –
8 | Cc1ccc2c(c1)[C@H]1[C@H](CO2)[C@H](c2ccccc2)[C@]2(C)C(=O)Nc3ccc(Br)cc3C(=O)N12 | active: 16.4 µM | –
9 | COc1cccc(NCc2cc(=O)oc3cc(C)c(C(C)C)cc23)c1 | inactive | –
10 | O=C(Nc1ccc(Cl)c(C(F)(F)F)c1)c1ccco1 | inconclusive [inhibitor, partial curve, poor fit] | –
11 | Cc1cccc(C)c1NC(=O)c1cccc(C(=O)Nc2c(C)cccc2C)n1 | inconclusive [inhibitor, partial curve] | –
12 | COCCCNC(=S)Nc1ccc2c(c1)OCCO2 | inactive | –
13 | CC[C@]1(c2ccccc2)C(=O)N(C(=O)OC)N1C(=O)OC | active: 16.4 µM | –
14 | CCOC(=O)N(C)c1c(CC)nc2c(OCc3ccccc3C(=O)OC)cccn12 | inconclusive [inhibitor, single point] | –
15 | O=C(Nc1ccc2c(c1)OCO2)O[C@@H]1C[C@H]2CCCC(=O)N3CC[C@@H](C1)[C@@H]23 | inactive | –
16 | Cc1cc(NC(=S)NC(=O)c2ccccc2)ccc1-c1cc2ccccc2oc1=O | active: 2.91 µM | –
17 | O=C(NCCC1=CCCCC1)C(=O)NCC1OCCCN1S(=O)(=O)c1ccc(F)cc1 (configuration not stated) | inconclusive [inhibitor, single point] | –
18 | N#C/C(=C(/O)COc1ccccc1)c1nc2ccccc2s1 | inconclusive [inhibitor, partial curve] | –
19 | CCc1nc(Nc2ccc(F)c(Cl)c2)c2c3c(sc2n1)CCCC3 | active: 5.8 µM | –
20 | CCOC(=O)CCC1(C(=O)OC)C(=O)CCCCCC=C1C(=O)OC (configuration not stated) | inactive | –
21 | Cc1cc(C)c(S(=O)(=O)Nc2cccc(-n3cnnn3)c2)c(C)c1 | inconclusive [inhibitor, single point] | –
22 | COCCSc1nnc(NC(=O)c2ccc(OC)c([N+](=O)[O-])c2)s1 | inactive | –
23 | Cc1ccc(S(=O)(=O)N2CCC(C(=O)Nc3ccc(C(C)C)cc3)CC2)cc1 | active: 14.6 µM | –
24 | COc1ccc(-c2nc(CN3CCN(c4cc(C)nc(C)c4)CC3)c(C)o2)c2ccccc12 | inconclusive [inhibitor, single point] | –
25 | O=C(Cn1ncc2c3ccccc3n(Cc3cccc(Cl)c3)c2c1=O)NCCCc1ccccc1 | inactive | –
26 | CC(=O)Nc1ccc(S(=O)(=O)N2CCN(Cc3nc4sc(C)c(C)c4c(=O)[nH]3)CC2)cc1 | inactive | –

Row | SMILES | Potency | activity change, negative = growth inhibition
27 | CCOC(=O)N1CCC(N(C(=O)Nc2cccc(OC)c2)C(C)CC)CC1 (configuration not stated) | active: 10.3 µM | –
28 | CN(C)c1ccc(C=Cc2nccc3ccccc23)cc1 | inconclusive [inhibitor, single point] | –
29 | CCOC(=O)C1CCCN(CC(=O)Nc2cc(C)cc(C)c2)C1 (configuration not stated) | inactive | –
30 | O=C(CCCC1=NS(=O)(=O)c2ccccc2N1)NCCc1ccc(Cl)cc1 | inactive | –
31 | Cc1ccc(/C=N/NC(=O)c2nnn(-c3nonc3N)c2C(C)C)s1 | inactive | –
32 | Cc1cccc(C)c1NC(=O)Cn1cc(C(=O)c2ccco2)c2ccccc21 | inconclusive [inhibitor, single point] | –
33 | CN(C)CCCN(C(=O)c1ccc([N+](=O)[O-])o1)c1nc2cc3c(cc2s1)OCO3 | inconclusive [inhibitor, single point] | –
34 | CCCCCC(=O)N1C[C@@H](n2cc(C3CC3)nn2)[C@H](O)C[C@@H]1c1ccc(OC)cc1 | inconclusive [inhibitor, single point] | –
35 | COc1ccc(C(=O)N2CCC(n3nnc4cc(F)ccc43)CC2)cc1OC | inactive | –
36 | Cc1cc(S(=O)(=O)Nc2ccc(C(=O)NCCCN3CCCC3=O)cc2)ccc1F | inactive | –
37 | COc1ccc(CNC(=O)C[C@H]2C[C@H](C(=O)N(C(C)C)C(C)C)[C@@]3(C)c4[nH]c5cc(-c6ccco6)ccc5c4CCN3C2=O)cc1OC | inconclusive [inhibitor, single point] | –
38 | CN1CCN(C(=O)c2ccc(CNS(=O)(=O)c3ccc(F)c(Cl)c3)cc2)CC1 | inactive | –
39 | CC1CCC(CN2CCN=C2N(C)C)CC1 (configuration not stated) | inconclusive [inhibitor, single point] | –
40 | COc1ccc(-c2ccc(C(=O)NCC3Cc4cccc(-c5nc(C)cnc5C)c4O3)o2)cc1 (configuration not stated) | inconclusive [inhibitor, partial curve, poor fit] | –
41 | Cc1ccc(NC(=O)COc2ccccc2C(=O)NCc2ccccc2)cc1 | inconclusive [inhibitor, single point] | –
42 | CN(C)CCCCCCCCCCC(=O)/C=N/O | inconclusive [inhibitor, partial curve, poor fit] | –
43 | CN(C)C(=O)c1ccc(-c2cncnc2NCCN2CCOCC2)cc1 | inactive | –
44 | COc1cc(NC(=O)c2[nH]cnc2C(N)=O)cc(C(=O)Nc2cccc(C(F)(F)F)c2)c1 | active: 18.4 µM | –
45 | O=C(NC1CC2CCCC(C1)N2C(=O)Nc1ccccc1)C1CC1 (configuration not stated) | inactive | –
46 | Cc1cc(O)c(C(c2ccccc2)N2CCN(c3ccccc3)CC2)c(=O)n1Cc1ccco1 (configuration not stated) | inactive | –
47 | CS(=O)(=O)Nc1ccc(N2CCN(c3ccc(C(F)(F)F)cn3)CC2)nc1 | inconclusive [inhibitor, partial curve] | –
48 | Cc1ccc(NS(=O)(=O)c2cc(C(=O)Nc3cccc([N+](=O)[O-])c3)ccc2C)cc1 | inconclusive [inhibitor, single point] | –
49 | Cc1sc2ncnc(Sc3ccccc3C(=O)Nc3ccc(Br)cc3)c2c1C | active: 16.4 µM | –
50 | CCOc1ccc(-c2nn(-c3ccc(F)cc3)c3c2cnc2ccc(F)cc23)cc1 | inactive | –
51 | Nc1nonc1-n1nnc(C(=O)N/N=C/c2ccccc2)c1CSc1ccc(Cl)cc1 | inconclusive [inhibitor, single point] | –
52 | Brc1cc(Br)c[n+](CCc2ccccc2)c1 | active: 14.1 µM | –

Row | SMILES | Potency | activity change, negative = growth inhibition
53 | S=c1nc(-c2ccc(Br)cc2)[nH]c2ccccc12 | inconclusive [inhibitor, single point] | –
54 | S=C(Nc1cccc(Cl)c1)Nc1cccc2cnccc12 | active: 18.4 µM | –
55 | COc1ccc2c(c1)c1nnc(SC(C)C)nc1n2C | inconclusive [inhibitor, single point] | –
56 | Cc1cc(C)n(-c2ccc(C(=O)Nc3ccc(S(=O)(=O)NCc4ccco4)cc3)cc2)n1 | active: 18.4 µM | –
57 | COc1ccc(Nc2n[nH]c(C)c2[N+](=O)[O-])cc1 | inactive | –
58 | NCCCn1c(C(=O)c2cc(Cl)c(N)c(Cl)c2)c2ccc(C(F)(F)F)cc2[n+]1[O-] | active: 18.4 µM | –
59 | O=C(CCc1ccccc1)Nc1ccc(S(=O)(=O)NC2=NCCCCC2)cc1 | inactive | –
60 | COc1ccc(-c2cn3c(C)c(C(=O)N4CCN(c5ccccc5)CC4)sc3n2)cc1 | inconclusive [inhibitor, single point] | –
61 | CCCCC(CC)C(=O)Nc1cc(=O)[nH]c2nc3ccccc3n12 (configuration not stated) | inactive | –
62 | O=C1CC2(CCN(C(=O)c3cccc(F)c3)CC2)Oc2ccccc21 | inconclusive [inhibitor, single point] | –
63 | CC(=O)Oc1ccc(OC(C)=O)c2c1C1C=CC2CC1 | active: 16.4 µM | –
64 | CCOc1ccc(C(=O)NCc2nnnn2-c2ccc(C)c(C)c2)cc1OCC | inactive | –
65 | OC(c1ccc(F)c(F)c1)c1nc(-c2cccc3cccnc23)cs1 (configuration not stated) | inconclusive [inhibitor, single point] | –
66 | COc1ccc(-c2csc(Nc3ccc(Oc4ccccc4)cc3)n2)cc1 | active: 16.4 µM | –
67 | C=CCOc1ccccc1CN1CCC(Oc2ccc(C(=O)N3CCCC3)cc2)CC1 | inconclusive [inhibitor, single point] | –
68 | Cc1ncc(COP(=O)(O)O)c(C=O)c1O | inactive | –
69 | CN(C)c1ccc(C(=O)C(=O)c2ccccc2)cc1 | inactive | –
70 | Cc1cccc2c1OCC/C2=N\NC(=O)COc1ccccc1 | inconclusive [inhibitor, partial curve] | –
71 | Cc1cc2nc(/C(C#N)=C/c3ccncc3)[nH]c2cc1C | active: 16.4 µM | –
72 | CCC(=O)C1=C(O)C(c2cccc(Oc3ccccc3)c2)CCC1=O (configuration not stated) | active: 9.2 µM | –
73 | CCc1nn(CC(=O)NCC(C)c2ccccc2)c(=O)c2cc3occc3n12 (configuration not stated) | inactive | –
74 | Cc1ccc(C(C(=O)NC2CCCC2)N(Cc2ccco2)C(=O)CCC(=O)Nc2ccccn2)cc1 (configuration not stated) | active: 16.4 µM | –
75 | COc1ccccc1OCc1ccc(C(=O)N(C)c2ccccc2)o1 | inconclusive [inhibitor, single point] | –
76 | O=C(N/N=C/c1ccc(O)cc1)c1csc2c1CCCC2 | inconclusive [inhibitor, full curve] | –
77 | Cc1cc(CNC(=O)c2ccc3nc(Cc4ccccc4F)oc3c2)nn1C | – | inconclusive: -30.1% [inhibitor]
